Reference: publication PMC3334285 (Journal of the American Chemical Society, 2012)

Target: PksA SAT-KS-MAT (Aspergillus parasiticus, UniProt Q12053)
Conditions: 2 mM malonyl-CoA, 10 uM protein, 100 mM K/PO4 pH 7.4, room temp, 60 min; covalent, MAT S993

CC(C)(COP(=O)(O)OP(=O)(O)OC[C@H]1O[C@@H](n2cnc3c(N)ncnc32)[C@H](O)[C@@H]1OP(=O)(O)O)[C@@H](O)C(=O)NCCC(=O)NCCSC(=O)CC(=O)O [malonyl-CoA]
RPLC-FTMS of tryptic active site peptides: SAT and MAT transferase domains bound their respective hexanoyl and malonyl substrates
